The numbers were not newly measured in PMC4450067 (PLoS Pathogens, 2015), which cites them from elsewhere.

SMILES strings stand for the structures.

Data set [1] has as its system interaction of G3BP with USP10 (NTF2-like domain of G3BP). The note with it: cited from earlier work.
Data set [2] deals with USP10 DUB activity and p53. The conditions noted are these: cited from earlier work.

As for `Oc1ccc(/C=C/c2cc(O)cc(O)c2)cc1` [resveratrol], the “effect on interaction of G3BP with USP10” value in data set [1] is recorded as “can inhibit the interaction of G3BP with USP10”. Besides, the “effect on USP10 DUB activity and p53” value in data set [2] is “stimulating USP10 DUB activity and stabilization of p53”.
